These results are taken from publication PMC12136788.

This is one part of the list.

B1: 28428117_28428237_10128_3pUTR_ENSG00000104290_ENST00000240093|human|control|control (ssRNA)
RNA: GGGAGUUCUACAGUCCGACGAUCGCCUAGUGCACAGAGAACAUUUAAUCUACCAGAGAACUCUGCGGAGAUAUGGAACUAAUGCAAUCUCUACUUUUUUUUUUUUCUUUUUUUUUUUUUGAGAUAGAGUCUCGCUCCGUUGCCCAACAGAGGAUUGAGCAUCA
B2: chr1:163112212:163112213:-_ENSG00000143248_ENST00000313961|hu_hu|hu_hu_hu_mus_False|48_68 (ssRNA)
RNA: GGGAGUUCUACAGUCCGACGAUCUUUUAUUAUCAGUAAGAGUGAGUUACAUACUAGGCAAAGUAUUGAAUACAAAAAUCAGGAAACAAACACAAUUGGUCCAGAAUUUAAAACUUUAUGAGCGAAGUGCUGGCACAGGACUUACAACAGAGGAUUGAGCAUCA
B3: 45663463_45665008_1985_CDS_ENSMUSG00000020598_ENSMUST00000020939|mouse|control|control (ssRNA)
RNA: GGGAGUUCUACAGUCCGACGAUCAUUAUCAUGCAAAACAUAAAUGUCUUCAUGAAGAGCGCUUCCUUUAGUGCCUUUAAACCACUCAAUGGUAGGCAUAGGAGAUCCAAAGAAGGCACAAUCUAGCAAAGCAGGCCUGUUUGCCAACAGAGGAUUGAGCAUCA
B4: chr10:59412704:59412705:-_ENSMUSG00000020108_ENSMUST00000020308|mus_hu|FALSE|FALSE (ssRNA)
RNA: GGGAGUUCUACAGUCCGACGAUCGCUUAAACGCAGCUGCCAGGUGUAAUUUUUCAAGUGUCAAAGAUCCCAAGUGAUCCCUGACACCCACCCCUUCCUACUCUUACAUUCAUGCGUCUGUAAGAUAGCUGCCUACAACAGGUCCAACAGAGGAUUGAGCAUCA
B5: chr3:138113954:138113955:+_ENSMUSG00000028138_ENSMUST00000005964|mus_mus|motif|central (ssRNA)
RNA: GGGAGUUCUACAGUCCGACGAUCCGAAGGAUCGAUUUUAGCAACAGAGAUGUCAGCCACAACUGUGUACUCGGAAAAUGUGCGGGUCCCCAUGAAGUGAAAAACAGACUUUCCUUUGCAGGUAAAUCUGCUAGUCCCAUCUGGCAACAGAGGAUUGAGCAUCA
B6: chr12:85022504:85022505:+_ENSMUSG00000010608_ENSMUST00000048155|mus_hu|motif|central (ssRNA)
RNA: GGGAGUUCUACAGUCCGACGAUCCACAAGACCAAUUUUCUUGGCUUCUGUUUCAUAUAUCAAUAAUCUCCACAUUUUGACGGUAAAAACUUCUGCUUCUUCAUCAAGUACCAUGGCAACAUCAUCUAAAAUGCUCUGGGGUGACAACAGAGGAUUGAGCAUCA
B7: chr1:54681892:54681893:+_ENSG00000116221_ENST00000360840|hu_mus|FALSE|FALSE (ssRNA)
RNA: GGGAGUUCUACAGUCCGACGAUCCCAUACCAAAUUCUUGACGCCCUCGCUAGAAGCCAGAUCUGUGGUGUUCAACUGCAGCACCAGGAACUGGAAGACACGGCCAUCAGUGCCCACGCUCUGCACGACUAUUGGCUGCUCCAACAACAGAGGAUUGAGCAUCA
B8: chr2:121258011:121258012:+_ENSMUSG00000027248_ENSMUST00000028683|mus_mus|motif|central (ssRNA)
RNA: GGGAGUUCUACAGUCCGACGAUCCUUGCCUUGUAUCAAAUCUUUAUUAUCUUCCGUCAUAUGAGGACAGAGACCAAAAAUGCGGUCCUGAAUAAAUUUCUUGAUCUUGCCACUGGUCAUUUUCUUUUCAGUAUAUGCCACAGUCAACAGAGGAUUGAGCAUCA
B9: chr5:132270174:132270175:-_ENSG00000072364_ENST00000265343|hu_hu|FALSE|FALSE (ssRNA)
RNA: GGGAGUUCUACAGUCCGACGAUCAGAAUCCCAGUUUGCAUCAGGGUCCCGAGGUGAUUUGGAGCGUUGAUGUUCCUUGCUAUGGUGAUCAUUCCCAUGAGACCUGGAAUGACUAGAGUUUAAUGAAGAAACAGCCUGGGGUUUCAACAGAGGAUUGAGCAUCA
B10: chr6:36694466:36694467:-_ENSMUSG00000029838_ENSMUST00000101534|mus_hu|FALSE|FALSE (ssRNA)
RNA: GGGAGUUCUACAGUCCGACGAUCUUCAGCAGUAUCCACAGCUGCCAGUAUGAAAAUGAAUGCCAAGAAGGCAGCUGCAAAUUUUCGACGCUGCUGCUGGUACUGUUGAGCCUGCAUUUUUGAGUUGGAAACGUCCUCUCUGGCCAACAGAGGAUUGAGCAUCA
B11: chr9:106387587:106387588:+_ENSMUSG00000041506_ENSMUST00000047721|mus_mus|FALSE|FALSE (ssRNA)
RNA: GGGAGUUCUACAGUCCGACGAUCGCGGAGUGGGAUGAUGCAGACUGAGUUCCGGGCCUCUUUGAUCCUCCACCACCGGCCAAGCCUGUGCUCCUGUCCCACGCCUGCCACCAAGAAGUCCCCAGCACUGGAGAACUUGAGGCUCAACAGAGGAUUGAGCAUCA
B12: chr10:128108517:128108518:-_ENSMUSG00000049858_ENSMUST00000054764|mus_hu|FALSE|FALSE (ssRNA)
RNA: GGGAGUUCUACAGUCCGACGAUCAAAGUUGUGCAAGUCAUCCAGGGAAAGAGACAGUGACUGACCCCCAGGUGCUCCUACUACGUGUAAGCGAUAGGUGUCUGGAUCCAGGUUAGGUACAGGCAGAUGGUUCCGGGUGAAGAACAACAGAGGAUUGAGCAUCA
B13: chr15:42709458:42709459:-_ENSG00000103994_ENST00000263805|hu_mus|motif|central (ssRNA)
RNA: GGGAGUUCUACAGUCCGACGAUCGGAGGACAGAUAGGGGCCUGGAGAAGGACAGUGAACGGCCCAUGGGAGAAUUCUUCACGGAGGACUUCCCAACGUGGGAGGCAAAAAACUUCAUGAAUCUAUUUUGCUGUCAUCUUCAGCCAACAGAGGAUUGAGCAUCA
B14: chr11:47650564:47650565:-_ENSG00000109919_ENST00000530428|hu_hu|FALSE|FALSE (ssRNA)
RNA: GGGAGUUCUACAGUCCGACGAUCAUAGGUAUUGACGAGGUAGGCCAGUGAGUUACACAGCCACAAAGAAAGGAUGUCACCUAGAAGGCGAGGAACAAGACCCGCGAAAAAUCCUAGAAUGCCCUCUUCCCGAUAGAUGGUUAUCAACAGAGGAUUGAGCAUCA
B15: chr7:141438946:141438947:+_ENSG00000106028_ENST00000265304|hu_mus|hu_hu_hu_mus_True|38_98 (ssRNA)
RNA: GGGAGUUCUACAGUCCGACGAUCGACGAAAUACCUGACAGGUCUUCCUUCGAAACAUGGCUUCUGUUUUUCUUACAACCUAAUCUUUAGGCUUUUCCUGACGAUCUGAAAGAAAAGAGAAAAAUGAUAAAUCAAGAAACUACACAACAGAGGAUUGAGCAUCA
B16: chr2:202488911:202488912:-_ENSG00000155755_ENST00000286196|hu_mus|hu_hu_hu_mus_False|38_38 (ssRNA)
RNA: GGGAGUUCUACAGUCCGACGAUCAUUGAAACAUUUUUCAUAAUCUCCAGUAGCAUUUCAGCAUUAUGUAACAAAAGCUCAAUUGUAAAUACAUGUAUAUACAUCUUAUACACUUAAAAACACGAGUGGGGAGCGCAGGCGCCACAACAGAGGAUUGAGCAUCA
B17: chr9:95013113:95013114:-_ENSG00000196305_ENST00000443024|hu_hu|hu_hu_hu_mus_False|78_88 (ssRNA)
RNA: GGGAGUUCUACAGUCCGACGAUCCUCAGUCAGAAAGGGCGUGUAAGGAGCCAUAAGUCUGCAAAGAGAAAGCAGGACACUGAACAGUGUCUCCAGAGCCAUGACACAGUCUUCCACCCCACUCUCACCCUUUAACCUCCUCCUCAACAGAGGAUUGAGCAUCA
B18: chr15:100647222:100647223:+_ENSMUSG00000023032_ENSMUST00000023776|mus_mus|motif|central (ssRNA)
RNA: GGGAGUUCUACAGUCCGACGAUCGGGCCAAAAAACUCAUGAUAGUUUUGGAACAUAGAAAAUCACACAUAUACUUUUAAACGGAGUAUCCAAAGUGAUGCCACCGCUUACAGCUCAUUUCUUCGUGUGGCUUUUACACCUGAGCAACAGAGGAUUGAGCAUCA
B19: 63459772_63459892_11392_CDS_ENSMUSG00000030451_ENSMUST00000076226|mouse|control|control (ssRNA)
RNA: GGGAGUUCUACAGUCCGACGAUCCGCAGCCAGAGAGGCAGCAAGGCGAGGGACGAUGCUUCUGUUGGAGGUGAGAUUGAGUCGGAAGUCCAAGAGACAGGUCACCAGGUCCAUGGAUGGACAUGAGAGGACACAGCGAUCCGACAACAGAGGAUUGAGCAUCA
B20: chr1:168330043:168330044:-_ENSMUSG00000040596_ENSMUST00000169324|mus_mus|FALSE|FALSE (ssRNA)
RNA: GGGAGUUCUACAGUCCGACGAUCCUUGGCAGCCUGACAGUUGUUGGUGCUCUCGGCGUACUCCACCACCAUCAGCUUGAACCCUGCAUCAUAACUGCGGCGCAUGCCACGACUGAACUGAAACUUGCUCGCCAAGUCGUCAGCCAACAGAGGAUUGAGCAUCA
B21: chr2:78712580:78712581:+_ENSMUSG00000027011_ENSMUST00000028398|mus_mus|FALSE|FALSE (ssRNA)
RNA: GGGAGUUCUACAGUCCGACGAUCGUUAGGAGGAGGAUCAAGGGUUAUCUCUGCUAGCUCCUUCUGAAUUCUUUUAGCACUAGUGGAUAACUUAGCAGUCGUUUUGCUAGAGAGUUUGGUGUUUUUCUUCUGCUGGGUGGCAGACAACAGAGGAUUGAGCAUCA
B22: 23956996_23957116_5964_CDS_ENSMUSG00000039218_ENSMUST00000088621|mouse|control|control (ssRNA)
RNA: GGGAGUUCUACAGUCCGACGAUCCCGCUUGCCUCGAGCUGCCCUAGGAGUACGAGACCUAGAACGGCGGCGGAUAGCAAGUGGUGAGCGGCUUCGAGAGCGCUUGCGUGGCAACAGUGGUGUCCGAGACCUAGAUCGUCUUCGCAACAGAGGAUUGAGCAUCA

This test addresses T1, UNK ZnF1-3 (human, UniProt Q9C0B0 31-174).
T1 sequence: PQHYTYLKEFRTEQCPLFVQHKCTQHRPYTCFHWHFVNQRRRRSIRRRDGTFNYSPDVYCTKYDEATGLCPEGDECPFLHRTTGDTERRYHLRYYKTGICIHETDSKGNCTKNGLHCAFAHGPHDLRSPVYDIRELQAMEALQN
Briefly: nsRBNS (natural sequence RNA bind-n-seq); RBNS binding buffer (assumed for nsRBNS): 25 mM Tris pH 7.5, 150 mM KCl, 3 mM MgCl2, 0.01% Triton X-100, 500 ug/ml BSA, 20 U/ml SUPERase-In, 4 C; UNK is unkempt and MSI1 is Musashi-1; names of the RNAs are library labels; protein concentration not given here; high values mean tight binding.
Molecule B1 returned a binding signal of 1.31 enrichment R.
For B2 the value was 1.47 enrichment R; for B3, 0.868 enrichment R.
In the case of B4 it was 0.745 enrichment R.
For B5 the value was 0.894 enrichment R; for B6, 1.24 enrichment R.
B7: the binding signal was found to be 1.03 enrichment R.
In the case of B8 it was 1.35 enrichment R.
In the case of B9 it was 1.05 enrichment R.
B10: the binding signal was determined as 1.09 enrichment R.
Regarding B11, the binding signal was found to be 1 enrichment R.
B12 yielded a binding signal of 1.54 enrichment R.
In the case of B13 it was 1.52 enrichment R.
For B14 the value was 1.32 enrichment R; for B15, 0.842 enrichment R; for B16, 0.975 enrichment R.
Consider B17, for which the binding signal came to 1.34 enrichment R.
For B18 the value was 0.905 enrichment R; for B19, 1.51 enrichment R; for B20, 0.671 enrichment R.
In the case of B21 it was 0.752 enrichment R; in that of B22, 0.783 enrichment R.
